This passage reports self-cleavage results from the RNAGym collection of RNA variant scans (doi:10.7554/elife.90254).

B1: OR4K15 (parent)
chain: GUUAACGGUCAUAGGCCAUGGAAACUAGGAGCACCAUUUCGCUGCCAGUGAAGAAAUGAACAAAGAAAAUCUGGGCCAGGCAGGCAUCAAAAGAAAUAGUCUUGCGCUCAACCAGAAAGUCUGUAAUCAUUUUAAGGGUA

Read counts are not given, so values of variants with three or more changes are uncertain.

In the series the parent is B1. The series is described as follows: self-cleavage, relative activity (ratio to wild type); higher = more cleavage; in vitro, sequencing; the parent is a self-cleaving ribozyme.
With GUUAACGGUCAUAGGCCAUGGAGACUAGGAGCACCAUUUCGCCGCCAGUGAAGAAAUGAACAAAGAAAAUCUGGGCCAGGCAGGCAUCAAAAGAAAUAGUCUUGCGCUCAACUAGAAAGUCUGUAAUCAUUUUAAGGGAA [A23G U43C C113U U139A], the self-cleavage was 0.08.
On to GUUAACGGUCAUAGGCCAUGGAGACUAGGAGCACCAUUUCGCCGCCAGUGAAGAAACGAACAAAGAAAAUCUGGGCCAGGCAGGCAUCAAAAGAGAUAGUCUUGCGCUCAACCAGAAAGUCUGUAAUCGUUUUAAGGGUA [A23G U43C U57C A95G A129G], for which the self-cleavage came to 0.43.
Next, GUUAACGGUCAUAGGCCAUGGAGACUAGGAGCACCAUUUCGCUGCCAGCGAAGAAGUGAACAAAGAAAAUCUGGGCCAGGCAGGCAUCAAAAGAAAUAGUCUUGCGCCCAACCAGAAAGUCUGUAAUCAUUUUAAGGGUA [A23G U49C A56G U108C]: 0; GUUAACGGUCAUAGGCCAUGGAGACUAGGAGCACCAUUUCGCUGCCAGAGAAGAAAUGAGCAAAGAGAAUCAGGGCCAGGCAGGCAUCAAAAGAAAUAGUCUUGCGCUCAACCAGAAAGUCUGUAAUCAUUUUAAGGGUA [A23G U49A A60G A67G U72A]: 0.26; GUUAACGGUCAUAGGCCAUGGAGACUAGGAGCACCAUGUCGCUGCCAGUGAAGAAAUGUACAAAGAAAAUCUGGGCCAGGCAGGCAUCAAAAGAAAUAGUCUUGCGCUCAACCAGAAAGUCUGUAAUCAUUUUAAGGGUA [A23G U38G A59U]: 0.
Next, GUUAACGGUCAUAGGCCAUGGAGACUAGGAGCACCAUCUCGCUGCCAGUGAAGAAAUGAACGAAGAAAAUCUGGGCCAGGCAGGCAUCAAAAGAAAUAGUCUUGCGCUCAACCAGAAAGUCUGUAAUCAUUUUAAGGGUA [A23G U38C A62G]: 0.56.
Turning to GUUAACGGUCAUAGGCCAUGGAGACUAGGAGCACCAUUACGCUGCCAGUGAAGAAAUGAACAAGGAAAAUCUGGGCCAGGCAGGCAUCAAAAGAGAUAGUCUUGCGCUCAACCAGAAAGUCUGUAAUCAUUUUAAGGGUA [A23G U39A A64G A95G], the self-cleavage turned out to be 1.07.
In the case of GUUAACGGUCAUAGGCCAUGGAGACUAGGAGCACCAUUACGCUGCCAGUGAAGAAAUGAACAAGGAAAAUCUGGGCCAGGCAGGCAGCAAAAGAGAUAGUCUUGCGCUCAACCAGAAGGUCUGUAAUCAUUUUAAGGGUA [A23G U39A A64G U87G A95G A118G], the self-cleavage worked out at 0.19.
As to GUUAACGGUCAUAGGCCAUGGAGACUAGGAGCACCAUUCCGCUGCCAGUGAAGAAAUGAACAACGAAAAUCUGGGCCAGGCAUGCAUCAAAAGAAAUAGUCUUGCGCUCGACCAGAAAGCCUGUAAUCAUUUUAAGGGUA [A23G U39C A64C G83U A110G U120C], the self-cleavage is 0.02.
Consider GUUAACGGUCAUAGGCCAUGGAGACUAGGAGCACCAUCUCGCUGCCAGUGAAGAAAUGAACAAAGAAAAUCUGGGCCAGGCAGGCAUCAAAGGAAAUAGUCUUGCGCUCAACCAGAAAGUCUGUAGUCAUUUUAAGGGUA [A23G U38C A92G A126G], for which the self-cleavage was found to be 0.52.
Next, GUUAACGGUCAUAGGCCAUGGAGACUAGGAGCACCAUUUCGCUGCCAGUGAAGAAAUGAACAAAGAAAAUCUGGGCCAGGCAGGCAUCAAAAGAAAAAGUCUUGCGCUCAACCAGAAAGUCUGUAAUCAUUUUACGGGUA [A23G U97A A135C]: 1.46; GUUAACGGUCAUAGGCCAUGGAGACUAGGAGCACCAUUCCGCUGCCAGUGAAGAAAUGAACAAAGAAAAUCUGGGCCAGGCAGGCAUCAAAAGAAAUAGUCUUGCGCUCAACCAGAAAGUCUGUAACCAUUUUAAGGGUA [A23G U39C U127C]: 0.57.
For GUUAACGGUCAUAGGCCAUGGAGACUAGGAGCACCAUUUCGCUGCCAGAGAAGAAAUGAACAAAGAAAAUCUGGGCCAGGCAGGCAUCAAAAGAAAUAGUCUUGCGCUCAAUCAGAAAGUCUGUAAUCAUUUUAAGGGUA [A23G U49A C112U], the self-cleavage was found to be 0.05.
Next, GUUAACGGUCAUAGGCCAUGGAGACUAGGAGCACCAUUUCGCUGCCAGAGAAGAAAUGAACAAAGAAAAUCUGGGCCAGGCAGGCAUCAAAAGAAGUAGUCUUGCGCUCAACCAGAAGGUCUGUAAUCAUCUUAAGGGUA [A23G U49A A96G A118G U131C]: 0.74; GUUAACGGUCAUAGGCCAUGGAGACUAGGAGCACCAUUUCGCUGCCAGUGAAGAAAUGAACAAAGAAAAUCUGGGCCAGGCAGGCACCAAAAGAAAUAGUCUUGCGCUCAACCAGAGAGUCUGUAAUCAUUUUAAGGGUA [A23G U87C A117G]: 1.59; GUUAACGGUCAUAGGCCAUGGAGACUAGGAGCACCAUCUCGCUGCCAGUGAAGAAAUGAACAAAGAAAAUCUGGGCCAGGCAGGCAUCAAAAGAGAUAGUCUUGCGCUCAACCAGAAAGUCUGUAAGCAUUUUAAGGGUA [A23G U38C A95G U127G]: 1.16.
As to GUUAACGGUCAUAGGCCAUGGAGACUAGGAGCACCAUUUCGCUGCCAGUGAAGAAAUGAACAAAGAAAAUCUGGGCCAGGCAGGCAUCAAAAGAAAAAGUCUUGCGCUCAACCAGAAAGUCUGUAAUCCUUUUAAGGGUA [A23G U97A A129C], the self-cleavage came to 1.03.
As for GUUAACGGUCAUAGGCCAUGGAGACUAGGAGCACCAUUUCGCUGCCAGUGAAGAAAUGAACAAAGAAAACCUGGGCCAGGCAGGCAUCAAAAGAAAUAGUCUUGCGCUCAGCCAGAAAGUCUGUAAUCAUUUUAAGGGUA [A23G U70C A111G], the self-cleavage is 0.03.
Next, GUUAACGGUCAUAGGCCAUGGAGACUAGGAGCACCAUCUCGCCGCCAGUGAAGAAAUGGACAAAGAAAAUCUGGGCCAGGCAGGCAUCAAAAGAAACUGUCUUGCGCUCAACCAGAAAGUCUGUAGCCAUUUUAAGGGUA [A23G U38C U43C A59G U97C A98U A126G U127C]: 0.39; GUUAACGGUCAUAGGCCAUGGAGACUAGGAGCACCAUUUCGCCGCCAGUGAAGAAAUGAACAAAGAAAAUCUGGGCCAGGCAGGCAUCAAAAGAAAUAGUCUUGCGCUCAACCAGAAAGCCUGUAACCAUUUUAAGGGUA [A23G U43C U120C U127C]: 1.01.
In the case of GUUAACGGUCAUAGGCCAUGGAGACUAGGAGCACCAUUUCGCUGCCAGUGAAGAAAUGAACAAAGAAAAUCUGGGCCAGGCAGGCAUCAAAAGAAACAGUCUUGCGCUCAUCCAGAAAGUCUGUAAUCAUUUUAAGGGUA [A23G U97C A111U] it was 0.16.
